This note sets out measurements from PubChem BioAssay AID1346428 (National Center for Advancing Translational Sciences (NCATS), 2018).

Values joined by “and” are separate entries in the source; they are usually repeats but may differ in a detail not shown here. Equal values may be shown once. Out of some 48,000 compounds screened, about 1,200 (2.5%) were called active. Not shown: some 2% with an inconclusive outcome.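 The calls were made as follows: active = activation of at least 60% and not above a set upper limit (about 1 call in 100 departs from these limits); inconclusive = activation of 40% to 60%, or above that upper limit; inactive = activation under 40%.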 Some of the results follow.

UniProt O75388, sequence (O75388 whole entry, looked up, the tested form may be a part): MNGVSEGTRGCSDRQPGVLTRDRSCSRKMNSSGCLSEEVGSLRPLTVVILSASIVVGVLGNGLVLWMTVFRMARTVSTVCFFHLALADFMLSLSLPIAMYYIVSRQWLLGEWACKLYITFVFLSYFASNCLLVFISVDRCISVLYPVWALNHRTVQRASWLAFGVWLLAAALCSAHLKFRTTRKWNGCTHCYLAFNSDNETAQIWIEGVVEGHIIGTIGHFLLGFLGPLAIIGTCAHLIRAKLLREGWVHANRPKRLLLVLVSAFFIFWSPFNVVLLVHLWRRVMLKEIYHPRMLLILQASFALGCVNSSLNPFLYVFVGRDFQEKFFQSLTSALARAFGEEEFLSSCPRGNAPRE

The test deals with Probable G-protein coupled receptor 32 (Homo sapiens) (UniProt O75388). Kind of test: qHTS for Agonists of Human Resolvin D1 Receptor DRV1. Also: 0% is about no effect. The settings on record: CHO-K1 GPR32 beta-arrestin PathHunter luminescence, 90 min; at 76.9 µM; stronger effect = higher value; zero percent set by DMSO-only wells. Put shortly:
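Agonism was scored by beta-Gal fragment complementation (chemiluminescent read, 1 h detection at ambient temperature) reporting beta-arrestin binding to GPR32 in engineered CHO-K1 cells. Compound treatment lasted 90 min at 37 C, normalized to a DMSO basal control.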
(In general: Quantitative high-throughput screening tests each substance at several concentrations.)
As to `O=C1OC(C(=O)Nc2ccc(Cl)c(C(F)(F)F)c2)Cc2ccccc21` (stereo not given), the activation is active: 80%.
The same measure for `COc1ccccc1CNC(=O)c1ccc(N2Cc3cccc(OC)c3Oc3ncccc32)s1`: inactive: -1.42%; for `COc1ccc(-c2noc(-c3ccc(N4CCCCC4C)c([N+](=O)[O-])c3)n2)cc1OC` (stereo not given): inactive: 10.7%; for `CC(C)(C)OC(=O)N1CCC(c2nnc(SCc3ccccc3)o2)CC1`: inactive: 17.5%.
The same measure for `Cc1cc(NC(=O)COc2ccccc2)cc(-c2nc3ccccc3o2)c1O`: inactive: -7.92%; for `CCCN1C(=O)C(Cc2nc3ccccc3c(=O)n2-c2cccc(C)c2)c2ccccc21` (stereo not given): inactive: -28.2%; for `Cn1ncc(C(=O)N2CCN(c3ccc(F)cc3)CC2)c1C1CCN(C(=O)OC(C)(C)C)CC1`: inactive: -11.9%.
The same measure for `CCCn1c(-c2cccc(Br)c2)nc2ccccc21`: inactive: 43.5%.
In the case of `Cc1cc(C)cc(NC(=O)C2CCCN2S(=O)(=O)c2cccc3nsnc23)c1` (stereo not given), the activation was inactive: -5.59%.
`Cc1ccc(C2=CC(c3c(F)cccc3Cl)n3ncnc3N2)cc1C` (stereo not given): the activation is inactive: 20%.
The same measure for `O=C(CSc1nnc2[nH]c(=O)cc(-c3ccccc3)n12)Nc1ccc(F)cc1F`: inactive: 2.36%; for `COc1cccc(C2C(C(=O)Nc3ccccc3)=C(C)Nc3nc(-c4ccccc4)nn32)c1OC` (stereo not given): inactive: -12.3%.
On to `CCOC(=O)c1ccc(CN(Cc2ccccc2C)S(=O)(=O)c2ccc(C(C)(C)C)cc2)cc1`, for which the activation is inactive: -28.2%.
The same measure for `Cc1ccc(C(=O)n2nc(C)c(S(=O)(=O)N3CCCCCC3)c2C)cc1`: inactive: -5.81%.
Under `Cc1ccc(C)c(CN2CCC(CNC(=O)c3cc4ccc5cccnc5c4[nH]3)CC2)c1` stands inactive: 2.34%.
As for `COc1ccc(CNc2nc3c(c(=O)n(C)c(=O)n3C)n2Cc2ccccc2Cl)cc1`, the activation is inactive: -12.7%.
For `COc1ccc(C)cc1NC(=O)c1ccc2c(c1)CCN2S(=O)(=O)c1ccc(Cl)cc1`, the activation is inactive: -10.3%.
Under `Cc1cccc(-c2noc(-c3ccc(N4CCN(C)CC4)c([N+](=O)[O-])c3)n2)c1` stands inactive: 0.421%; under `CCOc1ccc(C2C(=O)N(C3CCCCC3)CC(=O)N2C2CCCC2)cc1OC` (stereo not given), inactive: -15.6%.
Turning to `COc1cc(NC(=O)Cc2c(C(=O)O)c(C)cn2C)cc(OC)c1`, the activation was inactive: -5.18%.
For the compound `Cc1ccc2c(c1)N(C(=O)N1CCC(C(=O)NC3CCCCCC3)CC1)CC(C)O2` (stereo not given), the activation was inactive: -3.06%.
The same measure for `COc1ccc(/C=C/C(=O)Nc2sc3c(c2C(N)=O)CCC(C)C3)cc1OC` (stereo not given): inactive: 33.6%.
The same measure for `CNC(=O)c1ccc(Nc2nnc(-c3ccc(C)c(S(=O)(=O)N4CCCCC4)c3)c3ccccc23)cc1`: inactive: 3%.
Under `Cc1ccc(-n2ncc3c(N4CCN(C)CC4)ncnc32)cc1Cl` stands inactive: -3.49%.
On to `CCOc1ccc(NC(=O)CCS(=O)(=O)c2cccc3nonc23)cc1`, for which the activation was inactive: 37.1%.
Turning to `CCOC(=O)c1c(NC(=O)c2cc(C)on2)sc(C)c1C`, the activation is inactive: -6.01%.
For `COc1ccc(CNC(=O)CCC(=O)N2CC3CCCN3c3ccccc32)c(OC)c1` (stereo not given), the activation is inactive: 11.4%.
Regarding `Cc1cc(C)cc(OCc2ccc(C(=O)Nc3ccccc3F)o2)c1`, the activation is inactive: 16.7%.
The same measure for `CCc1cccc(NC(=O)CSc2ncccc2C(=O)Oc2ccccc2Cl)c1`: inactive: -29.6%.
Turning to `Cc1cc(C)c2c(=O)cc(C(=O)Nc3sc4c(c3C(=O)NCc3cccnc3)CCCC4)oc2c1`, the activation was inactive: -5.38%.
Consider `CC(C)C12CN3CC(C(C)C)(CN(C1)C3c1ccc(OCc3ccccc3)cc1)C2=O` (stereo not given), for which the activation is inactive: 2.77%.
Regarding `CC(C)n1c(SCC(=O)Nc2ccc(F)cc2)nc2c(oc3ccccc32)c1=O`, the activation is inactive: -22.9%.
With `CCOc1ccccc1CNC(=O)c1ccc2c(c1)sc1nc(-c3cccc(OC)c3)cn12`, the activation is inactive: -10.6%.
For the compound `CCC(Sc1nc2nccnc2c(=O)n1Cc1ccc(OC)cc1)C(=O)NC1CCCCC1` (stereo not given), the activation is inactive: -13.1%.
For the compound `CCOc1ccc(-n2c(SCC(=O)Nc3ccc(F)cc3)nc3c([nH]c4ccccc43)c2=O)cc1`, the activation was inactive: 3.62%.
As for `COC(=O)c1cc(S(=O)(=O)NCC2CCN(Cc3ccc(C)cc3)CC2)c[nH]1`, the activation is inactive: -25.4%.
As to `CC(=O)c1cccc(NC(=O)c2ccc(-n3c(C)nnc3C)cc2)c1`, the activation was inactive: -5.09%.
The same measure for `Cc1ccc(CN2CCc3nc(N4CCN(C)CC4)ncc3C2)s1`: inactive: -23.7%; for `CC(C)(C)CC(=O)NC1CC(=O)N(c2ccc3c(c2)OCCO3)C1` (stereo not given): inactive: 36.5%; for `O=C(c1ccc2c(c1)N(Cc1ccccc1F)C(=O)c1ccccc1S2=O)N1CCOCC1` (stereo not given): inactive: -9.63%.
In the case of `CC(=O)O[C@@H]1CC2C3CCc4cc(OC(=O)c5ccccc5)ccc4C3CCC2(C)[C@H]1OC(C)=O` (stereo not given in full), the activation is inactive: 3.62%.
The same measure for `Cc1ccc(-n2ncc3c(N4CCC(Cc5ccccc5)CC4)ncnc32)cc1`: inactive: -4.95%; for `Cc1c(Cl)cccc1NC(=O)Cn1cnc2nc3c(cc2c1=O)CCCC3`: inactive: -4.37%.
The same measure for `O=C(NCC1CCCO1)c1c[nH]c2ccc(S(=O)(=O)Nc3cccc(C(F)(F)F)c3)cc2c1=O` (stereo not given): inactive: -10.3%.
As for `CCc1ccc(C(=O)c2cn(CC(=O)Nc3ccc(C)c(C)c3)c3ccccc3c2=O)cc1`, the activation is inactive: 5.09%.
Under `Cc1cccc(N(C)C(=O)CSc2nc3ncccc3o2)c1` stands inactive: -4.82%; under `Cc1ccc2c(c1)cc1c(=O)n(CC(=O)N3CCCCC3)nc(C)n12`, inactive: -0.0741%; under `CN(Cc1ccccc1)S(=O)(=O)c1nnc(NC(=O)c2ccccc2)s1`, inactive: 24.8%.
For the compound `COc1ccc2c(c1)c1c(c(=O)n(-c3ccccc3)c(=O)n1CC(=O)Nc1ccc(C)c(C)c1)n2C`, the activation is inactive: 2.15%.
Under `CCN(CC)c1ncnc2c1ncn2[C@@H]1O[C@H](COP(=O)(O)OP(=O)(O)C(Br)(Br)P(=O)(O)O)[C@@H](O)[C@H]1O` stands inactive: 3.79%; under `N#Cc1ccc(CSc2nc3c(c(=O)[nH]2)CCCC3)cc1`, inactive: 2.23%.
The same measure for `CC(/C=C/c1cccc(Oc2ccc(F)cc2)c1)N(O)C(N)=O` (stereo not given): inactive: -6.05%; for `O=c1c(O)c(-c2ccc(O)cc2O)oc2cc(O)cc(O)c12`: inactive: -1.65%.
Turning to `COc1ccc(C2CNC(=O)C2)cc1OC1CCCC1` (stereo not given), the activation is inactive: -12% and inactive: -2.11%.
The same measure for `O=C(Nc1c(C(=O)Nc2ccccc2F)oc2ccccc12)c1cc2ccccc2o1`: inactive: 8.51%; for `Cc1ccc(C)c(CS(=O)(=O)c2cn(CC(=O)N(C(C)C)C(C)C)c3ccccc23)c1`: inactive: -27.6%; for `COC(=O)CCn1cnc2onc(-c3cc(F)cc(F)c3)c2c1=O`: inactive: 13.4%.
Under `Fc1ccc2ncc3c(-c4ccccc4)n[nH]c3c2c1` stands inactive: -7.7%; under `CC(C)Sc1ncc(Cl)c(C(=O)Nc2ccc(S(=O)(=O)N(C)c3ccccc3)cc2)n1`, inactive: -18.3%; under `Cn1ncc2c(Nc3cccc(F)c3)ncnc21`, inactive: -17.4%.
The same measure for `COc1cc(NC(=O)CN2CCN(CC(=O)Nc3ccc(F)cc3)CC2)cc(OC)c1`: inactive: 3.32%; for `COc1cc(C(CC(=O)NCCC(C)C)N2Cc3ccccc3C2=O)cc(OC)c1OC` (stereo not given): inactive: -4.52%.
For `Cc1ccc(Cn2c(C)c(CNCCCc3ccccc3)c(C(=O)O)c2C)cc1`, the activation is inactive: 32%.
The same measure for `CCCCNC(=O)CSc1nnc(C)c2c(C)n(-c3ccccc3)nc12`: inactive: -11.3%; for `CC1CCN(S(=O)(=O)c2ccc3c(c2)CCC(=O)N3CC(=O)Nc2cccc(C#N)c2)CC1`: inactive: 0.134%.
Regarding `CC(C)NC(=O)C1CCN(c2nc3ccccc3nc2C(F)(F)F)CC1`, the activation is inactive: 1.75%.
On to `Cc1ccc(C2=NN(CC(=O)NCCN(CC(C)C)CC(C)C)C(=O)CC2)cc1`, for which the activation is inactive: -9.04%.
`Cc1ccc(-c2cc3c(n2-c2ccc(C)cc2)CC(C)(C)CC3=O)cc1`: the activation is inactive: -6.98%.
The same measure for `Cc1ccc(-c2noc(CNC(=O)c3ccccc3)n2)cc1`: inactive: -5.41%; for `CCC1CN(C(=O)N2CCC(C(=O)NCc3ccccc3C)CC2)c2ccccc2O1` (stereo not given): inactive: -24.5%.
The same measure for `O=C(NCc1ccccc1)c1ccc(CSc2nc3cccnc3n2Cc2ccccc2F)cc1`: inactive: -23.9%; for `O=C(NCCOCCn1c(=O)oc2ccccc21)Nc1ccc(F)cc1`: inactive: 0%; for `COc1ccc(OCC(=O)Nc2cccc(-c3nc4ccccc4s3)c2C)cc1`: inactive: -7.7%.
As for `COc1ccccc1OCC(=O)Nc1nc(-c2ccc(Br)cc2)ns1`, the activation was inactive: -3.08%.
With `Cc1nc(N2CCCC2)ncc1C(=O)Nc1ccc(F)cc1F`, the activation is inactive: 6.09%.
On to `Cc1cc2c(cc1S(=O)(=O)N(CCN(C)C)Cc1ccco1)OCC(=O)N2`, for which the activation is inactive: -8.97%.
`Cc1ccc(S(=O)(=O)c2cn(C)c3cc(N4CCCC(C)C4)c(F)cc3c2=O)c(C)c1` (stereo not given): the activation was inactive: -25.3%.
The same measure for `Cc1ccc(NC(=O)C2CCN(S(=O)(=O)c3c(C)noc3/C=C/c3ccco3)CC2)cc1C`: inactive: -27%.
As for `CC(C)N(Cc1ccccc1)C(=O)CCS(=O)(=O)c1ccc2c(c1)oc(=O)n2C`, the activation is inactive: -2.8%.
The same measure for `Cc1ccccc1CSc1ncc(CO)n1Cc1ccc(F)cc1`: inactive: 15.6%; for `CCOc1ccc(-c2cc(-c3nc(-c4ccc(OC)c(OC)c4)no3)[nH]n2)cc1`: inactive: 10.1%; for `CCN(C(=O)Cn1cnc2sc(C)c(S(=O)(=O)N3CCN(c4ncccn4)CC3)c2c1=O)c1ccccc1F`: inactive: 4.05%.
Under `CC(=O)c1ccc(NC(=O)CC(c2cccs2)N2Cc3ccccc3C2=O)cc1` (stereo not given) stands inactive: -6.81%; under `COc1ccc(Cc2nc3ccccc3n2Cc2ccccc2F)cc1`, inactive: -11.5%; under `Cc1cc(Cl)ccc1OCC(=O)N(Cc1ccco1)Cc1ccco1`, inactive: 9.53%.
